Assay results reported in the supplement of paper PMC3334620.
Over roughly 33,000 sequences, “E-score (-0.5 to 0.5)” has its median near -0.04; the highest 2% begin near 0.36. This is one part of the list.

Target: T1, Hmlalpha2 (UniProt P0CY09)
T1 sequence: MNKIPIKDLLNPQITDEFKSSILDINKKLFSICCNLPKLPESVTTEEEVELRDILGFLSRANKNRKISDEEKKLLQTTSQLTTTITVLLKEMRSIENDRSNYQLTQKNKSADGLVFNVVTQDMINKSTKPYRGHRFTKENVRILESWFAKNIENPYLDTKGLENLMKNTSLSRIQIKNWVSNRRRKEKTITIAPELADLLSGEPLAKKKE
Assay: PBM E-score (8-mer binding enrichment) (E-score (-0.5 to 0.5)); higher = stronger / more preferred TF binding; most listed sequences are background and not binding sites
Conditions: protein concentration: 200 nM; construct: GST-full length
Protocol: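 Universal 'all 10-mer' protein binding microarrays (Agilent AMADID 015681) probed with GST-tagged S. cerevisiae TFs (full-length or DBD) made by in vitro transcription/translation (PURExpress), about 100-200 nM. Bound TF was detected with fluorescent anti-GST. Each ungapped 8-mer (which stands for itself and its reverse complement) is scored by the PBM enrichment score (E-score), a modified Wilcoxon-Mann-Whitney statistic from -0.5 to +0.5, computed with the Universal PBM Analysis Suite. Scale: above 0.35 generally sequence-specific binding.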

Sequence | PBM E-score
GGCGGTTA | -0.055
CATCTGAA | -0.106
GAATCATC | 0.0179
AGTCAGGC | -0.107
CGTCGTCA | -0.0343
TCGAACCA | 0.03
AAAGCCGA | -0.183
CCTACCTA | -0.0766
CAGAGCCC | -0.153
CCGTGGGA | -0.352
GCGCCGAA | -0.106
CATGATCC | 0.0754
ACCCAGCC | -0.272
TAGTTAAA | 0.31
GGCGGTCA | -0.283
AACTCATG | 0.146
GAGGGTCC | -0.374
AATTGCAG | -0.181
TACTCACA | 0.165
CGTATGTA | 0.356
ACGGCACG | 0.079
CGAGCGAA | -0.199
CGTCGTAG | -0.125
GTCGAGAC | 0.116
TTGCCCAA | -0.163

Sequence | PBM E-score
AGTCCGTG | -0.126
GGCGAGAA | -0.136
CCTTGACC | -0.13
CTGAACTA | 0.0184
TAGTCAGA | -0.166
CGCCCATA | -0.264
GCCGTGTA | 0.432
CACATAAA | 0.259
ATTGATAC | 0.129
GGTGTGAC | -0.193
CAACACTC | 0.166
CATTCTCG | -0.0595
CCATGGGC | -0.283
ACTGTTGC | -0.0605
GCCGACCC | -0.295
AGCTAAGA | -0.0157
GAGTCAAA | 0.0265
ACGTCATC | 0.0076
GGAGAGGA | -0.331
AGCAAATC | 0.0306
CCAATCCG | -0.27
AGGGTCAC | -0.246
TAAATGTA | 0.38
GAGGGTTA | -0.00948
CCCCGCAC | -0.201

Sequence | PBM E-score
AATGTAAC | 0.296
AAATCTCA | -0.0212
CAGAATAC | 0.208
TGACCGCA | -0.0736
CTCGAAGA | -0.0921
ATCTAGAC | -0.0288
GTCTGAGA | -0.143
CATCTCAA | 0.136
GACTTCCA | -0.332
CGAGTGAA | 0.168
GAAATGTA | 0.0891
CGTCTGCA | 0.0591
CGCTCAGC | -0.144
AGATATGA | -0.0923
AAACGCCT | -0.0535
CAGATACG | -0.235
CCACGTCA | 0.00927
GATCGTGA | -0.12
TGAATTCA | 0.235
AGATGTTA | 0.201
GGACATCA | -0.0127
AAAAAGTT | -0.0414
CATAGACG | 0.176
ACGAACGT | 0.084
AGGCCGGA | -0.196

Sequence | PBM E-score
GATACACC | 0.0716
CGGAAACA | -0.0925
GAAGTCTC | -0.247
CGAGGGCC | -0.193
CAATAATC | -0.043
AAAGGAGG | -0.212
ATGATCAT | 0.115
TGAGGTAA | 0.085
ATGGGGTC | -0.125
CGTAAACC | 0.182
TAGACCTA | 0.0167
CGTCAAGA | -0.0534
GCGCGAGA | -0.0264
CTTCTTTC | -0.199
CTCGGATA | -0.0602
GCTTAAGC | 0.187
ATCGCAAT | -0.097
CCTCTCGC | -0.213
TAATATTA | 0.379
CCACATAA | -0.00586
CGGCGCAA | 0.0253
ACGTCACT | -0.093
ATGCCCGA | -0.112
AGCATAGA | 0.0108
GATTTGGC | -0.0812

Sequence | PBM E-score
CTCACTTC | -0.198
CCCATTTA | 0.0398
CGACGATC | -0.0929
CACAAGCC | -0.00918
AACAGTGT | 0.148
CGCGACAA | 0.112
AGCCACAT | 0.157
ACTGTAAT | 0.251
ACGCCGTG | 0.164
GTACAGGA | 0.223
ATTCTCAC | 0.0859
CTAGAGCA | -0.0807
ATCTACTC | 0.00965
GCTATGCA | -0.0142
ACATGCGG | 0.289
ATCGGAGG | -0.0907
AGTGGAGG | -0.281
AGAGACGC | -0.211
CGGTTGAA | 0.102
GGGCACGA | -0.143
AAGAGCCG | -0.309
CGGTCCAC | -0.185
GCCCCGGC | -0.203
AGCTACTA | 0.0524
GACTTATC | -0.301

Sequence | PBM E-score
CACTTGAC | 0.0938
TAGAATGA | 0.082
ACCAGTCC | -0.335
GTACTACA | 0.369
ACTTTTTG | 0.108
GAGGAATA | 0.112
ATTAGGCC | -0.161
ATCCCGAG | -0.153
GCCGCGAC | -0.213
GGGCGACA | -0.118
AATCATCG | 0.0275
AGAGAGAT | -0.0161
CCGCTTCA | -0.0577
ATGGGTTA | 0.177
GGCCCGAA | -0.135
AGACCCAC | -0.157
GGTCCAAA | -0.126
ATTTTAGA | -0.0278
CAGACTTC | 0.029
GCAGACAA | -0.0588
AGGAGGTA | -0.16
AGCACGCC | -0.177
AGGAACGA | -0.183
ATCTGCAA | -0.00902
ACTCAGCT | -0.074

Sequence | PBM E-score
CCGACTGC | -0.166
ACTCTCGC | -0.244
ACTGCGGA | -0.0818
ACCGCGCT | -0.0622
GATCGGGC | -0.245
CGCGAAGA | -0.0664
AGTTTCCC | -0.194
ACTTTTAA | 0.0963
CCACGAGC | -0.115
AGATATGG | -0.132
AAAGCCAA | -0.0644
CCCTGAAA | 0.0432
CCTGTAAA | 0.328
GATCCTAA | -0.17
ATCTTTGG | -0.0184
CCAGAGGG | -0.323
CTCAACAA | 0.302
ATTCGAGG | -0.205
GGCAGAAC | -0.103
CGGTTGGC | -0.124
CTTGGTAA | 0.207
GAATCGTC | -0.121
